Test system: wild-type rgRSV224
Conditions: A549 cells, time-lapse imaging 48 h

For `CS(=O)(=O)CCCn1c(Cn2c(=O)n(CC(F)(F)F)c3ccncc32)cc2cc(Cl)ccc21` [JNJ-53718678], the “concentration giving statistically significant inhibition of the infection rate, wild-type RSV” value was at least 1 nM.
